Test results from PubChem BioAssay AID1347165 (National Center for Advancing Translational Sciences (NCATS), 2019).
Screen size: about 220,000 compounds; about 5,700 (2.6%) were called active. Where a call stands in place of a potency, no number is given. The shares of active, inactive and inconclusive entries below differ from those in the screen. Calls follow the shape of the dose curve; as a rule, active = well fitted inhibition curve with a large enough effect; inconclusive = small, poorly fitted or top-dose-only effect; inactive = no such curve, though single readings can be large or run the other way. Where the call is inconclusive, the potency comes from a doubtful curve fit.

These compounds were tested against Lysine-specific demethylase 5B (Homo sapiens) (UniProt Q9UGL1) (assay: Primary screen for KDM5B Histone Demethylases FDH-coupled qHTS). Settings: FDH-coupled NADH fluorescence (FDH is formaldehyde dehydrogenase); series mostly up to 57.7 µM.
Method in brief: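 Here, H3K4me3 peptide (12.5 µM in substrate mix) is demethylated by KDM5BΔAP, 200 nM final, after 10 min compound exposure. Formaldehyde product is coupled through FDH (0.25 U/mL in mix) to NADH fluorescence; 30-min ΔRFU feeds dose-response curves.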
Also: nearly all actives have a fitted effect of over 70% in size.
Potency is read from the fitted curve at half-maximal effect; tags tell the direction and shape of the fitted curve.

UniProt Q9UGL1, sequence (Q9UGL1 whole entry, looked up): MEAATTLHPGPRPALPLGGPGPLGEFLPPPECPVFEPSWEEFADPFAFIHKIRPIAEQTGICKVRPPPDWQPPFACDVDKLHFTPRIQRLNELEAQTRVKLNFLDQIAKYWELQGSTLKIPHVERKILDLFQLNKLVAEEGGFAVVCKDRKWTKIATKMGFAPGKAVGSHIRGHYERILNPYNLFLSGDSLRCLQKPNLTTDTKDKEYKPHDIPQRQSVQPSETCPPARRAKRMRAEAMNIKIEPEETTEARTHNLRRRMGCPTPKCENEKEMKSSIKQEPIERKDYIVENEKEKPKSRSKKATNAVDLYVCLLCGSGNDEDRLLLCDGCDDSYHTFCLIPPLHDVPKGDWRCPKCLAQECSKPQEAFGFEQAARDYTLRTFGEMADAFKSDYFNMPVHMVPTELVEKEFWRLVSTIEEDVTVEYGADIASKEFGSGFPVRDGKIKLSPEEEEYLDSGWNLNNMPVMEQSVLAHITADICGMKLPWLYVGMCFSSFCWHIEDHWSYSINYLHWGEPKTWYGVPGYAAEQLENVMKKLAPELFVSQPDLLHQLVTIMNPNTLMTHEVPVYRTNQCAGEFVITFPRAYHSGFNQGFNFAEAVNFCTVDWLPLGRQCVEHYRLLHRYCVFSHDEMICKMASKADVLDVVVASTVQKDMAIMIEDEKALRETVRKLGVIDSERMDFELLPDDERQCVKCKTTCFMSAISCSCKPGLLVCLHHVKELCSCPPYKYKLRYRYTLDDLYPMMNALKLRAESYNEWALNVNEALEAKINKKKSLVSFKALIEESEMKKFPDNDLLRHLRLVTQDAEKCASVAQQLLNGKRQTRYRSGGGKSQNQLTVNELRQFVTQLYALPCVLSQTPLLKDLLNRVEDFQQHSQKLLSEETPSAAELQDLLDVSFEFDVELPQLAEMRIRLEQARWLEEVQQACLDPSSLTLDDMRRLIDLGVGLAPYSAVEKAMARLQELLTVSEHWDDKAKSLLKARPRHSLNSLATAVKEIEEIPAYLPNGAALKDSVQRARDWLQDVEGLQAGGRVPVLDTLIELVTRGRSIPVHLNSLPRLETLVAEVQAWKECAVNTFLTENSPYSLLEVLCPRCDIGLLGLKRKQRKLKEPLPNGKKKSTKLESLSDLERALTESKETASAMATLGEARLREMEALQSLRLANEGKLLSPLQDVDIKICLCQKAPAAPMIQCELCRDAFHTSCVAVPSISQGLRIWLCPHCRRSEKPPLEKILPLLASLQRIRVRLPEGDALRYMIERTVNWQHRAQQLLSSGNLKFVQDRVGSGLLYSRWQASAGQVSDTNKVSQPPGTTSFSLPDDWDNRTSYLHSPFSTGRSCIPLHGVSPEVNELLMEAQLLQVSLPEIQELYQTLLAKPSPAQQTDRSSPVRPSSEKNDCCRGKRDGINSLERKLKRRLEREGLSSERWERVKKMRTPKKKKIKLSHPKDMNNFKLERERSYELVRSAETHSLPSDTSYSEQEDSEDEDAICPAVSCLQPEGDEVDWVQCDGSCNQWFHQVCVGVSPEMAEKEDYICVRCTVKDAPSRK

SMILES | Potency
O=C(CCC[C@@H]1[C@H]2CCCN3CCC[C@@H](CN1C(=O)c1ccsc1)[C@@H]23)NCC1CC1 | inconclusive: 31.6 µM [inhibitor, single point]
O=C1c2cc(N3CCOCC3)nc(-c3cnc4[nH]ccc4c3)c2CN1CC(F)(F)F | active: 31.6 µM
CN(C(=O)CCn1nc(-c2ccc(Cl)cc2)c2ccccc2c1=O)c1ccccc1 | inactive
CC(C)(C)C(=O)Nc1ccc(N2CCCCC2)c2ccncc12 | inconclusive: 20 µM [inhibitor, single point]
COC(=O)c1ccc(COC(=O)c2ccc(C)cc2C)cc1 | inactive
Nc1cccc(CO)c1 | inactive
c1ccc2c(-c3csc(NC4CC4)n3)c[nH]c2c1 | inactive
CCC(=O)NCc1cc(-c2nn(C)c(=O)c3ccccc23)ccc1OC | inconclusive: 22.4 µM [inhibitor, single point]
Cc1cc(=O)n(CC(=O)Nc2cccc(C)c2C)c(N2CCc3ccccc3C2)n1 | inactive
CCCCN1C(=O)C2(C(=C(O)c3ccc4c(c3)OCCO4)C(=O)C(=O)N2CCOC)c2ccccc21 (stereo unspecified) | inactive
CS(=O)(=O)Oc1ccc2c(=O)c(-c3ccc(Cl)cc3)c(C(F)(F)F)oc2c1 | inactive
O=C(Nc1ccc2c(c1)CCC2)c1c(F)c(F)c(F)c(F)c1F | inactive
COc1cc(=O)n2c(c1C(=O)NCc1ccc(F)cc1Cl)CCCC2 | inactive
COc1cc2[nH]c(=S)nc(NCc3ccc(C)cc3)c2cc1OC | inconclusive: 20 µM [inhibitor, partial curve, poor fit]
CC1(C)[C@H]2CC[C@@H](CNC(=O)c3cccc(Br)c3)[C@@H]1C2 | inactive
COc1cc(C=O)c(OC)cc1Br | inconclusive: 31.6 µM [inhibitor, partial curve, poor fit]
COC(=O)C1=C(C)N=C2SC=C(CC(=O)NC3CC3)N2C1c1cccc(F)c1 (stereo unspecified) | inconclusive: 31.6 µM [inhibitor, partial curve, poor fit]
CCOC(=O)CNS(=O)(=O)c1cc(-c2nnc(Nc3cccc(O)c3)c3ccccc23)ccc1C | inconclusive: 1.78 µM [inhibitor, partial curve, poor fit]
COCC1CN(C2CCC2)CC12CCN(C(=O)NCCc1ccccc1)CC2 (stereo unspecified) | inconclusive: 12.6 µM [inhibitor, partial curve]
COc1cccc(CC(=O)N2CCCN(S(=O)(=O)c3ccccc3)CCC(=O)NCC2)c1 | inactive
FC(F)(F)c1ccc(CN2CC[C@H](c3nc4cc(Cl)ccc4o3)C2)cc1 | inconclusive: 28.2 µM [inhibitor, single point]
